Source: paper PMC4336329 (PLoS ONE, 2015)
Among all 310,000 compounds or so, about 2,200 (0.71%) showed an effect of 50% or more. Effects have a minus sign here. Some of the results follow.

biological target: human ether-à-go-go-related gene (hERG) potassium channel (human, UniProt Q12809); assay: primary screen, population patch clamp on CHO cells stably expressing hERG
Sequence (Q12809 whole entry, looked up): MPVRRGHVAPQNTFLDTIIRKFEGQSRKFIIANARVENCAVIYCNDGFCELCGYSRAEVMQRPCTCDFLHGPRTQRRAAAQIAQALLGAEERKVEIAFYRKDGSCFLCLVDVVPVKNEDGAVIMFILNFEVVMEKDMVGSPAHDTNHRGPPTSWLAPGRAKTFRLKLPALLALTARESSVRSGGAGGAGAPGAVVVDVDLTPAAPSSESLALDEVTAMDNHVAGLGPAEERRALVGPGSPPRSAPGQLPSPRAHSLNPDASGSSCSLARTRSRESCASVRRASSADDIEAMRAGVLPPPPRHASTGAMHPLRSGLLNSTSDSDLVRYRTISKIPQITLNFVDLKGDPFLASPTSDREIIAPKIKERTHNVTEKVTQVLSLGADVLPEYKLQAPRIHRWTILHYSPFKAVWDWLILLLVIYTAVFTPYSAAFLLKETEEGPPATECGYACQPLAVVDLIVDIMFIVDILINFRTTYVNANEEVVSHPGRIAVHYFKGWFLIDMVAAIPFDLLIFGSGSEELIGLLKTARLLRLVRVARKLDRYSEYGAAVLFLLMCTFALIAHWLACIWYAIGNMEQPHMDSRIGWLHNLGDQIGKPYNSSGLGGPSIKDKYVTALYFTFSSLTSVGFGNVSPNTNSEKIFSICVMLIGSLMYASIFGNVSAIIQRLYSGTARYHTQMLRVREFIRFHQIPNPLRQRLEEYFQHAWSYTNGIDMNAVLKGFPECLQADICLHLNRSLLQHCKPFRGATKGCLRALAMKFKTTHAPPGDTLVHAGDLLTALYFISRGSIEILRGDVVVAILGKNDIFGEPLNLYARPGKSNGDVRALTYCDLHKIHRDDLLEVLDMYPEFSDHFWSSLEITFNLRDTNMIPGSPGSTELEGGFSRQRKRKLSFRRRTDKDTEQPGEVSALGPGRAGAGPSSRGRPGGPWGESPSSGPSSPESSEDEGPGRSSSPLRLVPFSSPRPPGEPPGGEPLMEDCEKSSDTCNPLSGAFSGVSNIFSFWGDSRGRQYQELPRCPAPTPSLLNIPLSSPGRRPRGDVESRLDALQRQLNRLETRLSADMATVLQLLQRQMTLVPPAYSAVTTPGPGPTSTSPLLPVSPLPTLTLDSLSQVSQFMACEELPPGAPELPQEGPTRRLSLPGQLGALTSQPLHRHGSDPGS

SMILES | hERG current change (%, negative = inhibition) at 1uM [%]
O=C(O)CN1C(=O)/C(=C\c2cccc(OCc3ccc(Cl)cc3Cl)c2)SC1=S | 10.7
COCCCNC(=O)c1ccc(NS(C)(=O)=O)cc1 | 5.97
COc1ccc(NC(=O)C2CCCN(C(=O)Nc3cccc(OC)c3)C2)cc1 (stereo not shown) | 1.9
CCOC(=O)C1CCCCN1Cc1cccc(OC)c1OC (stereo not shown) | 13.1
CCOCC(=O)Nc1cccc(OC)c1 | -0.338
O=C(Cc1cccs1)Nc1nc2c(ccc3ccccc32)s1 | 13.1
COc1ccccc1CNC(=O)c1cc(-c2ccccc2)nn1CC1CC(c2cccnc2)=NO1 (stereo not shown) | -26.4
Cc1csc(NC(=O)c2ccc3c(c2)OCO3)n1 | 4.57
O=C1C(=O)N(CCO)C(c2ccccc2[N+](=O)[O-])/C1=C(\O)c1ccccc1 (stereo not shown) | 14.6
COCCCn1c(SCC(=O)Nc2sc3c(c2C#N)CCCC3)nnc1-c1ccncc1 | -13.5
COc1ccccc1N1CCN(CC(O)COc2ccc(C)c(C)c2)CC1.Cl (stereo not shown) | -18.8
CCOc1ccc(NC(=O)CN(C)C(=O)c2ccccc2SCC(=O)N2CCCC2)cc1OCC | 19.9
CC(C)Oc1ccc(CCC(=O)NNC(=O)CCC(=O)O)cc1 | 7.24
O=S(=O)(Nc1ccccc1)c1ccc(F)cc1 | 7.86
CC(C)(C)NC(=O)c1ccc2c(c1)CCO2 | 8.73
Cc1c(NC(=O)COC(=O)/C=C/c2cccc(Br)c2)c(=O)n(-c2ccccc2)n1C | -5.13
CCOC(=O)CN1C(=O)C(O)(CC(=O)c2ccco2)c2ccccc21 (stereo not shown) | 0.493
C/C(=N/Nc1ccnc2cc(Cl)ccc12)c1ccc(N)cc1 | -22.8
COc1ccc(/C=C(\NC(=O)c2ccccc2)C(=O)NCc2cccnc2)cc1 | -31.1
Cc1cccc(/C=N/n2c(C)nnc2C)c1 | 6.06
COc1ccc2cc(C(N)=O)/c(=N\NC(=O)c3ccccc3)oc2c1 | 8.73
NC(=O)CC(NC(=O)Cc1ccc(Br)cc1)c1ccc(N2CCC(Br)CC2)c([N+](=O)[O-])c1 (stereo not shown) | 16.8

SMILES | hERG current change (%, negative = inhibition) at 1uM [%]
FC(F)(F)c1ccccc1CN1CCN(Cc2ccccc2)CC1 | 9.06
Cc1cc(OCC(O)CN2CCN(C)CC2)ccc1C(C)C.Cl (stereo not shown) | 11.7
Cc1cc(C(=O)COc2cccnc2[N+](=O)[O-])c(C)n1Cc1ccco1 | 19.4
CC(C)CCNC(=O)C1CC(c2ccc(C(F)(F)F)cc2)=NO1 (stereo not shown) | 20.6
CCOc1ccc(S(=O)(=O)c2c(C(=O)c3ccc(C)cc3)cnc3cc4c(cc23)OCCO4)cc1 | 9.26
CCC(C)C(=O)Nc1ccccc1N1CCN(c2ccc(F)cc2)CC1 (stereo not shown) | 11.3
O=C(NCCCN1CCOCC1)c1cccc(S(=O)(=O)Nc2cc(Cl)ccc2Cl)c1 | 7.66
C#CCO[C@@H]1C[C@H](n2ccc(NC(=O)c3ccccc3)nc2=O)O[C@@H]1CO | 11.1
CCOC(=O)C1(C)NC(c2cccc(C)c2)C2C(=O)N(c3ccccc3)C(=O)C21 (stereo not shown) | -7.52
Cc1cccc(N=C(NO)c2nonc2N)c1 | 10.4
CN(CC(=O)Nc1ccncc1)S(=O)(=O)c1ccc(Cl)cc1 | 4.02
C/C(=N\Nc1ccc(C(F)(F)F)cn1)c1ccc(S(=O)(=O)NCc2ccco2)cc1 | 22.5
Cc1oc(-c2ccccc2F)nc1CS(=O)CC(=O)NCc1ccccc1 (stereo not shown) | 5.96
CCOC(=O)Cc1c(C)nc2c(-c3ccccc3)c(C)[nH]n2c1=O | -4.28
CC(=O)N1CCN(c2nc(C)nc3sc4c(c23)CCC(C)C4)CC1 (stereo not shown) | 1.17
O=C1CSC(c2ccccn2)N1c1ccccc1 (stereo not shown) | 0.503
Cc1cc(C)nc(NC(=O)CCCC(=O)O)c1 | 12
COCCCN(CC(=O)O)S(=O)(=O)c1ccccc1 | 5.13
CCOC(=O)N1N=C(c2ccccc2)CC1(O)C(F)(F)F (stereo not shown) | 4.26
CC(C)CNC(=S)NC(=O)c1ccc(Cl)cc1Cl | 3.27
CCS(=O)(=O)N1CCN(C(=O)c2cc(OC)cc(OC)c2)CC1 | 12.7
COc1ccc(NC(=O)c2cccc(Oc3ccc([N+](=O)[O-])cc3Cl)c2)cc1 | 14.1

SMILES | hERG current change (%, negative = inhibition) at 1uM [%]
CS(=O)(=O)N(CC(=O)NCCSCc1ccccc1)c1ccc2c(c1)OCO2 | 8.85
COc1ccc(/C=N/NC(=O)c2cccc(NC(C)=O)c2)c(OC)c1 | 8.79
CC(C)c1ccc(S(=O)(=O)N2CCN(C(=O)c3cccc(F)c3)CC2)cc1 | 12.8
O=C(CCl)Nc1cc(S(=O)(=O)N2CCOCC2)ccc1N1CCOCC1 | 16.4
CS(=O)(=O)N(CC(=O)Nc1ccc2c(c1)OCO2)c1ccc(Cl)cc1 | 15
O=C(c1ccccc1)N1N=C(c2ccc(F)cc2)CC1(O)C(F)(F)F (stereo not shown) | 15.3
CCOC(=O)N1CCN(C(=O)c2cn(C)c3ccc(S(=O)(=O)N4CCCC4)cc3c2=O)CC1 | 7.08
COc1cc(CCCN2C(=O)C(=O)NC[C@@H]2Cc2ccc(O)cc2)cc(OC)c1OC | 17.3
CCCC(=O)Nc1ccc(OCC(O)CNC(C)C)c(C(C)=O)c1.Cl (stereo not shown) | 9.12
COc1ccc(NC(=O)NC2CC3CCCC(C2)N3Cc2ccccc2)cc1 (stereo not shown) | -17.4
Nc1cnn(C2OC(CO)C(O)C2O)c(=O)n1 (stereo not shown) | 6.98
CC(C)C[C@@]12C(=O)N(c3cccc(Br)c3)C(=O)N1[C@H](c1ccc(Cl)cc1)[C@@H]1C(=O)N(C3CCCCC3)C(=O)[C@@H]12 | -2.61
O=C(Nc1ccc(F)c(Cl)c1)C1CC(=O)N(Cc2ccco2)C1 (stereo not shown) | 1.42
Cc1ccc2nc(N(CCCN(C)C)C(=O)c3cc(-c4cccs4)nc4ccccc34)sc2c1.Cl | 4.73
CCOC(=O)c1[nH]c(C)c(C(=O)NCCc2ccc(OC)cc2)c1C | 22.1
COc1cc(NC(=O)C2=C(N3CCOCC3)/C(=C\c3ccc(Cl)cc3Cl)CC2)cc(OC)c1OC | 7.87
CCNC(=O)CSc1nc2sccc2c(=O)n1-c1ccccc1 | 15.5
COc1ccc(C(=O)N/C(=C/c2cccnc2)C(=O)NCc2ccco2)cc1OC | 14.4
Cc1csc(NC(=O)CSc2nncs2)n1 | 8.29
O=C(CCl)Nc1cc(-c2ccccc2)nn1-c1ccccc1 | 3.51
O=C(NCc1ccccc1)c1ccc[nH+]c1.[Cl-] | 12.3
COc1ccc(N2C(=O)C(Cl)=C(Nc3c(C)n(C)n(-c4ccccc4)c3=O)C2=O)cc1 | 7.79

SMILES | hERG current change (%, negative = inhibition) at 1uM [%]
Cc1ccc(-n2nc(C(=O)c3ccccc3)n3c(=O)c(Cc4ccccc4)nnc23)cc1 | 6.38
Nc1nonc1-n1nnc(C(=O)N/N=C/c2ccccc2)c1CSc1ccc(Cl)cc1 | -4.8
CC(C)N(C(=O)Nc1ccc2nsnc2c1)C(C)C | 6.78
N#Cc1ccc(Oc2nc(Nc3ccc(F)cc3)nc(N3CCCC3)n2)cc1 | 2.01
Cc1csc(N/N=C/c2c(F)cccc2Cl)n1 | 7.98
CC(=O)Nc1nc(C)c(Oc2ccc(C)cc2)c(=O)[nH]1 | 12.3
CCN(CC)S(=O)(=O)c1ccc(NC(=O)COC(=O)c2cnc(C)cn2)cc1 | 16.4
CC1(C)CCc2cc(-c3ccnc(=S)[nH]3)ccc2O1 | 22.5
Cc1ccc(OCCOC(=O)Cn2nc(C)c([N+](=O)[O-])c2C)cc1 | 6.95
COCCn1c(C)cc(C(=O)CSc2nc3nc(C)cc(C)n3n2)c1C | -1.42
O=C(c1ccccc1NS(=O)(=O)c1cccs1)N1CCCC1 | 13.8
C#CCN(C#N)c1nc(NCC)nc(NC(C)C)n1 | 6.89
Cc1[nH]c(C)c(S(=O)(=O)N2CCN(c3ccc(Cl)cc3)CC2)c1C(=O)N1CCCC1 | -44.2
CCCN1CCN(C2CCCCC2NS(=O)(=O)c2ccccc2)CC1 (stereo not shown) | -6.79
COc1ccc(NC(=O)[C@@]2(CC(=O)O)CC(/C=C/c3ccccc3)=NO2)cc1 | 24.9
COc1cccc(C2c3c(oc4ccccc4c3=O)C(=O)N2c2ccccn2)c1 (stereo not shown) | 0.551
COCCN(C(=O)CSc1nc2ccccc2o1)c1c(N)n(Cc2ccccc2)c(=O)[nH]c1=O | -4.44
CC(C)(C)N1NC2(CCCCC2)NC1=S | -0.414
CCCCN1C(N)=NC[C@@H]1C(C)O (stereo partly shown) | 14.1
CC(C)C[C@H](NC(=O)c1nc[nH]c1C(=O)N1CCC(C)CC1)C(=O)OCc1ccccc1 | 13.1
Cc1cc(C)n(-c2ccc(C(=O)OC(C)C)cc2)n1 | 4.09
COc1ccc(NC(=S)NC2CCN(Cc3ccccc3)CC2)cc1OC | 54.9
